The results in this text go back to the supplement of paper PMC11417369.

± gives the standard deviation of the averaged measurements. This is one part of the list.

The test deals with PfAP2-LT AP2 domain (GST-tagged). Briefly: gcPBM binding intensity (ln(normalized median fluorescence intensity)); higher = stronger DNA binding. The essentials: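 GST-tagged P. falciparum DNA-binding domains produced in E. coli were incubated for 1 h on an Agilent 4 × 180k array of primer-extended double-stranded 36-bp intergenic genomic probes with negative controls. Binding intensity is the highest Masliner-normalised natural-log median intensity across replicate spots of either probe orientation, with bound protein detected by Alexa488 anti-GST antibody at 488 nm.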
Take “TTTATTATATTTATATGTACTTATATAATATATGCA [XGTACX_site1906]”: the “gcPBM binding intensity (ln)” value was 8.71 ± 0.3. To “CTTATGTGTATAAGTAGTACTAAATTAAAATAATAT [XGTACX_site2681]” belongs 8.72 ± 0.49. In the case of “TTATAAATATAATATTGTACAAAATTTTAACATGTC [XGTACX_site5259]” it was 8.57 ± 0.47; in that of “CGTATGAAACATATATGTACTTATAAAAATATAACC [XGTACX_site7539]”, 8.89 ± 0.47. To “TCATAATGAAAACAAGCACACATACATAAAATAAAA [CACACA_site9069]” belongs 9.22 ± 0.49; to “ATATGTATTAAGTGTACACATATAATGTATTTTGTT [CACACA_site4177]”, 8.99 ± 0.43. Consider “TTATTTACCATCTCTACACACAAAAATTGATGTAGA [CACACA_site2811]”, for which the “gcPBM binding intensity (ln)” value turned out to be 8.85 ± 0.4. In the case of “TAAATTATATTATGCACACTTAAAAATATATTTAAC [CACACA_site3512]” it was 8.64 ± 0.36. To “ATTCCATAAGTAAACACACAAATGCCAAAATTTTAT [CACACA_site7491]” belongs 8.96 ± 0.49; to “ATTCAAAAAAAATCAACACACAGTTACATAGCTCAA [CACACA_site2234]”, 8.86 ± 0.4; to “ATATATATATATATGTGTACACAAAAAATATTATAT [XGTACX_site5741]”, 9.29 ± 0.38. To “GCACATATATATGAAACACACATGGAAACATCTCTT [CACACA_site3966]” belongs 9.23 ± 0.37; to “AATCTAATTAAAATCACACATATATTCGTCGTAATA [CACACA_site5855]”, 8.69 ± 0.36; to “ATATATATATATATAACACACGTGTATTTATCTGTA [CACACA_site5922]”, 9.53 ± 0.21. “AAAAAATTAACGAGTGCACACATATTTAGATAAAAT [CACACA_site8958]”: the “gcPBM binding intensity (ln)” value was 9.27 ± 0.57. To “AATGTATATTATTGCACACATATATAAAATTATGCT [CACACA_site1096]” belongs 9.13 ± 0.31; to “AAAAAAATATAGATCTGTACATATATAAATATATGT [XGTACX_site511]”, 8.67 ± 0.48.

Consider “TCTCTAATTTTTAATACACACAAATAAATAAATAAA [CACACA_site216]”, for which the “gcPBM binding intensity (ln)” value was 8.51 ± 0.41. In the case of “ATATATGTTAATAATTGTACAAATCGATAATATATA [XGTACX_site5076]” it was 8.9 ± 0.46; in that of “ATCTCTATGATATATACACACAAATATACAAAAAAA [CACACA_site6605]”, 8.96 ± 0.45. Regarding “ATTTGTGAATATATTCGGTGAACTTTGTTAACACAT [XGTACX_negctrl_site445]”, the “gcPBM binding intensity (ln)” value is 8.83 ± 0.38.

Take “AACGAAAACACTACGTGTACCAAATGTCCTGCCAAC [XGTACX_site5735]”: the “gcPBM binding intensity (ln)” value amounted to 9.06 ± 0.42. To “ATGGAAAAAAAGCATTGTACATTTAAAGAAAAACAG [XGTACX_site6639]” belongs 8.7 ± 0.45; to “TATTATATTTGTATGTGTACTTATATGGTTGTAATA [XGTACX_site4548]”, 8.72 ± 0.54; to “AAATATTATCAAACATAAATTATTTTTATCCGTATA [CACACA_negctrl_site771]”, 8.49 ± 0.52. In the case of “AAAAAAAAAAAAAACACACACATGCACCTCATATTA [CACACA_site556]” it was 9.48 ± 0.38; in that of “AGGCATAATTAAAAGTAACAATTATGGAAACGGAGT [GTGCAC_negctrl_site623]”, 8.94 ± 0.53; in that of “TTTATTTATTATTAAAGTACTAAATTATATTATTAT [XGTACX_site2565]”, 8.35 ± 0.54.

As for “AATTCATATACAAAAAGTACAAACGAAAAATAAAAA [XGTACX_site2900]”, the “gcPBM binding intensity (ln)” value came to 8.82 ± 0.54. To “TATGTGCACCCATATACACACACAAATACAATGATA [CACACA_site8295]” belongs 9.6 ± 0.3. In the case of “ATGTTTTATATTATTAATATATATATATATATATAT [CACACA_negctrl_site331]” it was 9.07 ± 0.33; in that of “GTTATATAAAAATATTGTACATTCTATATAAAGTCA [XGTACX_site4418]”, 8.46 ± 0.37. In the case of “AAAAAAAAAAAAAAATGTACATATAAATAAATATAT [XGTACX_site7248]” it was 8.64 ± 0.61. Regarding “TAATATCCATATAAAACACACATCAAGGTTGTTAAC [CACACA_site175]”, the “gcPBM binding intensity (ln)” value was found to be 8.82 ± 0.39. As for “ACAACATAGAGGGGCACACACATATATACATAAAAA [CACACA_site6954]”, the “gcPBM binding intensity (ln)” value amounted to 9.41 ± 0.55. Consider “ATATATATATATATAAAGTGAAGTATGAGGGAAATA [XGTACX_negctrl_site497]”, for which the “gcPBM binding intensity (ln)” value turned out to be 9.13 ± 0.45. To “TTATTATTTTATAACACACACATATAGATTATAGCT [CACACA_site6787]” belongs 9.15 ± 0.33; to “TTTTGTATTTATGGATGTACATAATATGTTTTAAAC [XGTACX_site3278]”, 8.77 ± 0.4.

Turning to “AAAAATTAAATATAAAGTACAAAATTAAAATCTTAA [XGTACX_site931]”, the “gcPBM binding intensity (ln)” value was found to be 8.53 ± 0.45. Take “TATGTATGTATTAATGCGCACACAAAAAATAACAAT [CACACA_site8551]”: the “gcPBM binding intensity (ln)” value was 9.37 ± 0.3. Take “TTTCCATATATAGAACGTACAAAGATCTTTGTTACT [XGTACX_site8972]”: the “gcPBM binding intensity (ln)” value stood at 8.68 ± 0.47. In the case of “ATACATATATATATGTGTACATATTATATATACATA [XGTACX_site8420]” it was 8.85 ± 0.38; in that of “TATATATGGTATAATTGTACTAACGCCAACTATACC [XGTACX_site5853]”, 8.8 ± 0.47; in that of “TATATATATTTATACACACAAACATAATACTACTTA [CACACA_site2022]”, 8.86 ± 0.35.
